# Over roughly 1,000 compounds, “relative growth in counter assay (no AraC = 100%, AraC + DMSO = 0%)” has its median near -1.1; the highest 2% begin near 20. This is one part of the list.
# Test system: HEK293FT dCK*-only
# Test: relative growth in counter assay (no AraC = 100%, AraC + DMSO = 0%); higher = more growth rescue independent of IKZF1
# Conditions: compound concentration: 5 uM; AraC concentration: 0.3 uM; overnight pretreatment + 4 days AraC
# Experimental: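 Growth recovery screen of the molecular-glue-like (Specs) library. HEK293FT cells expressing a dCK*-IKZF1 fusion (primary) or dCK* alone (counter) were pretreated overnight with compound at 5 uM, then given 0.3 uM AraC for 4 days. Hoechst nuclei were counted by imaging. Primary: normalised to pomalidomide (100%) and DMSO (0%), mean of 2 replicates. Counter: normalised to no-AraC (100%) and AraC+DMSO (0%), single replicate.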
row,Compound,relative growth in counter assay
1,O=S(=O)(Cc1ccccc1)Nc1ccc(S(=O)(=O)Nc2ncccn2)cc1,5.8%
2,CC(C)N(C(=O)CN1CCC(Cc2cccc(Nc3nccs3)n2)CC1)C1CCCCC1,-2.01%
3,Cc1cc(C)nc(NS(=O)(=O)c2ccc(NC(=O)c3ccccc3OC(C)C)cc2)n1,-1.73%
4,COC1CCCC(C(=O)N2CCOC(c3cccc(Nc4ncc(C)s4)n3)C2)C1 (configuration not stated),-9.41%
5,O=C(Nc1ccc(S(=O)(=O)Nc2ncccn2)cc1)c1ccc(N2C(=O)c3ccccc3C2=O)cc1,0.46%
6,Cc1nc(Nc2cccc(C3CCCN3C(=O)c3c(C)oc4c3CCCC4)n2)sc1C (configuration not stated),-6.74%
7,Cc1cc(C)nc(NS(=O)(=O)c2ccc(NC(=O)C(C)Oc3c(C)cccc3C)cc2)n1 (configuration not stated),2.87%
8,Cc1cnc(Nc2cccc(C3CN(C(=O)CN4CCc5ccccc5C4)CCO3)n2)s1 (configuration not stated),2.21%
9,Cc1cnc(Nc2cccc(C3(C(=O)NCCO)CCN(C(=O)C4CCCCC4)CC3)n2)s1,-16.1%
10,CCOc1cc(C(=O)Nc2ccc(S(=O)(=O)Nc3ncccn3)cc2)cc(OCC)c1OCC,-4.37%
11,COc1ccc(Cl)c2c1[nH]c1nc(SCC(=O)Nc3ccc(F)cc3)nnc12,-5.08%
12,Cc1cc(C)cc(OCC(=O)Nc2ccc(S(=O)(=O)Nc3nc(C)cc(C)n3)cc2)c1,-0.94%
13,Cc1ccc2[nH]c3nc(SCC(=O)Nc4ccc(Cl)cc4)nnc3c2c1,-6.1%
14,Cc1cnc(Nc2cccc(C3CN(C(=O)C4CCCC(C)C4)CCO3)n2)s1 (configuration not stated),-12.6%
15,CCC(CC)C(=O)N1CCOC(c2cccc(Nc3ncc(C)s3)n2)C1 (configuration not stated),-22%
16,Cc1cnc(Nc2cccc(CC3CCN(C(=O)c4cccc(Cl)c4F)CC3)n2)s1,-16.3%
17,COc1cc(NS(=O)(=O)c2ccc(NC(=O)c3ccccc3C)cc2)nc(OC)n1,2.06%
18,CC(=O)Nc1ccc(S(=O)(=O)Nc2nccc(/C=C/c3ccc(Cl)cc3)n2)cc1,4.3%
19,Cc1cnc(Nc2cccc(C3CN(C(=O)CN4CCN(C)CC4)CCO3)n2)s1 (configuration not stated),0.33%
20,O=C(Nc1ccc(S(=O)(=O)Nc2ccccn2)cc1)c1ccccc1F,0.76%
21,Cc1csc(Nc2cccc(C3CCN(C(=O)CN(C)C)CC3)n2)n1,17.4%
22,Cc1cccc2c1[nH]c1nc(SCC(=O)Nc3ccc(Cl)cc3)nnc12,-3.09%
23,CCCc1cnc(Nc2cccc(C3CCN(C(=O)CN)CC3)n2)s1,-27%
24,COc1nccnc1NS(=O)(=O)c1ccc(NC(=S)NC(=O)c2ccc(F)c(F)c2)cc1,-1.83%

row,Compound,relative growth in counter assay
1,Cc1cnc(Nc2cccc(C3CCN(CC(=O)N(C)C4CCCCC4)CC3)n2)s1,-15.6%
2,Cc1cc(C)nc(NS(=O)(=O)c2ccc(NC(=O)CCCN3C(=O)c4ccccc4C3=O)cc2)n1,10.7%
3,CS(=O)(=O)Nc1ccc(S(=O)(=O)Nc2ncccn2)cc1,3.46%
4,COc1cc(NS(=O)(=O)c2ccc(Nc3nc(-c4ccc(F)cc4F)cs3)cc2)nc(OC)n1,4.68%
5,COc1cc(NS(=O)(=O)c2ccc(Nc3nc(-c4c(C)nc5cc(C)ccn45)cs3)cc2)nc(OC)n1,-10.6%
6,O=C(C1CCCCC1)N1CCOC(c2cccc(Nc3ncc(Cc4ccccc4)s3)n2)C1 (configuration not stated),14.4%
7,Cc1cc(C)c2[nH]c3nc(SCC(=O)Nc4ccc(C)c(Cl)c4)nnc3c2c1,-7.39%
8,Cc1ccccc1N1C(=O)c2ccc(Oc3cccc(N)c3)cc2C1=O,-8.47%
9,Cc1ccc(OCC(=O)Nc2ccc(S(=O)(=O)Nc3nc(C)cc(C)n3)cc2)cc1,3.18%
10,COc1cc(NS(=O)(=O)c2ccc(NC(=O)c3ccccc3C(=O)O)cc2)nc(OC)n1,1.08%
11,CCCCCOC(=O)c1ccc(N2C(=O)c3ccc(Oc4ccc(N)cc4)cc3C2=O)cc1,-8.41%
12,CC(=O)N1CCC(c2csc(Nc3ccc(F)cn3)n2)CC1,4.68%
13,Cc1cc(C)nc(NS(=O)(=O)c2ccc(-n3cccc3)cc2)n1,-3.86%
14,Cc1cnc(Nc2cccc(C3CN(C(=O)Cn4c(C(C)C)nc5ccccc54)CCO3)n2)s1 (configuration not stated),-14.1%
15,Cc1cccc(N2CC(C(=O)Nc3ccc(S(=O)(=O)Nc4ncccn4)cc3)CC2=O)c1C (configuration not stated),2.21%
16,Cc1cc(NS(=O)(=O)c2ccc(NC(=O)C(C)Oc3ccc(F)cc3)cc2)nc(C)n1 (configuration not stated),0.64%
17,NC1(C(=O)N2CCC(c3cccc(Nc4ncc(CC(F)(F)F)s4)n3)CC2)CC1,-24.5%
18,COc1ccc(CCC(=O)Nc2ccc(S(=O)(=O)Nc3nccc(C)n3)cc2)cc1,-2.68%
19,CCc1ccc(C(=O)Nc2ccc(S(=O)(=O)Nc3nc(C)cc(C)n3)cc2)o1,-1.63%
20,O=C(O)CCOCCOCCOCCOCCNc1cccc2c1C(=O)N(C1CCC(=O)NC1=O)C2=O (configuration not stated),1.09%
21,CC(C)(C)C(=O)N1CCOC(c2cccc(Nc3ncc(Cc4ccccc4F)s3)n2)C1 (configuration not stated),-6.81%
22,Cc1cc(C)nc(NS(=O)(=O)c2ccc(NC(=O)c3ccccc3I)cc2)n1,1.67%
23,O=C(C1COCCN1)N1CCC(c2cccc(Nc3ncc(-c4ccccc4)s3)n2)CC1 (configuration not stated),-3.94%

# — the supplement of paper PMC12340641
